ChEMBL document CHEMBL4888484, “Replenishing the malaria drug discovery pipeline: Screening and hit evaluation of the MMV Hit Generation Library 1 (HGL1) against asexual blood stage Plasmodium falciparum ,using a nano luciferase reporter read-out” (2022)
The campaign covered roughly 150,000 compounds. About 540 (0.36%) showed an effect of 50% or more. The list shows a part of the results.

The molecules below were run on Plasmodium falciparum (assay: Primary screen in NF54 nanoGlo assay, in single point, at 2uM, 72h; a lower Z score goes with more inhibition). Details: timepoint 72 hour.
Assay type: functional, Erythrocyte

Compound	% Inhibition [%]	Z score
C#CCN1CCC(C(=O)N2CC3CCCCC3C2)CC1 (configuration not stated)	22	-2.53
O=C(Nc1nc(-c2cccs2)cs1)[C@@H]1COc2ccccc2O1	-8	0.73
Clc1c(CNc2ncnc3c2CCC3)nc2ccccn12	-3	0.37
COc1cccc(CC(=O)Nc2nc3ccc(Cl)cc3o2)c1	-3	0.63
CN(C)CCOC1CCN(C(=O)[C@]2(c3ccccc3F)CC2(C)C)CC1	3	-0.56
O=C(CCC1CCCC1)NCC(=O)N1CCCCCCNC(=O)C[C@H]1c1ccccc1	-9	1.34
C=CCNC(=O)N(C)Cc1nccn1C	-8	0.8
COc1cc2c(cc1OC)CN(C(=O)c1nc(=O)[nH]c3ccccc13)CC2	-5	0.99
Cc1ccc2c(c1Br)N(C(=O)[C@@H]1COCCO1)CCC2	-6	1.13
C[C@H]1CN(C(=O)c2cnccn2)CCO1	-7	0.75
Cc1ccc(-c2cn[nH]c2[C@H]2CCCN(C(=O)Cn3ccnc3)C2)cc1	1	-0.22
COCC(=O)N1CCC(Oc2ccncc2Cl)CC1	-2	0.4
NC[C@H]1c2ccccc2C=Cc2ccc(Cl)cc21	-1	0.08
COc1cccc(NC(=O)N[C@H]2CCN(C(=O)c3cccn3C)[C@@H]2C(=O)N2CCC[C@@H]2C(N)=O)c1	4	-0.55
COc1ccccc1O[C@@H](C)CNc1ccc(C#N)nc1	-4	0.54
Cc1ccc(N[C@@H](C)Cn2cc(Br)cn2)cc1C(N)=O	10	-1.26
CCN(C(=O)N1CCC(C(=O)N2CCn3cncc3C2)CC1)C(C)C	-7	0.96
CC(C)O[C@@H](C)c1n[nH]c(=O)n1Cc1ccco1	-1	0.08
O=C(CCn1cccn1)N1CC2OCCN(Cc3ccccc3)C2C1 (configuration not stated)	4	-0.33
CO[C@H]1CC[C@H](NC(=O)c2cc(C)[nH]c(=O)c2)CC1	-28	2.49
Cc1ccc(Cl)c(NC(=O)Cc2ccn[nH]2)c1	-17	1.72
CCn1cnc(NC(=O)NCc2nccn2CC)n1	3	-0.27

Compound	% Inhibition [%]	Z score
COc1c[nH]c(C(=O)N2CCN(c3cccc(Cl)c3)CC2)cc1=O	1	-0.11
COC(=O)c1cc(S(=O)(=O)N2CCC[C@H]2C(=O)Nc2ccc(OC)c(Cl)c2)cn1C	-10	1.79
COc1ccccc1NC(=O)c1ccc([C@H]2Nc3cc(C(F)(F)F)ccc3S(=O)(=O)N2)cc1	6	-0.82
O=C(N/C=C/c1nc2ccccc2s1)c1ccco1	6	-1.1
Nc1[nH]nc(C2CCCCC2)c1-c1ccc2c(c1)OCO2	8	-1.11
CC(=O)N1CCCC1C1CCCN1C(C)c1nnc(-c2cccs2)o1 (configuration not stated)	-16	1.66
CC(NC(=O)C1CCC(=O)NC1)c1ccccc1 (configuration not stated)	-9	1.39
C#CC[C@@H](CO)NC(=O)Nc1cccc(C)n1	9	-0.96
Cc1ccc(F)c(N2CCCC(NC(=O)NC(C)c3nc[nH]n3)C2)c1 (configuration not stated)	4	-0.37
O=C(C[C@H]1C(=O)NCCN1Cc1cccs1)NC(c1ccccc1)c1ccccc1	-8	0.99
CC(C)[C@H](NS(=O)(=O)CC1CCOCC1)c1ccccn1	-10	1.91
CCCCN(C)c1cc([C@H]2C[C@@H](N)C2)nc(N)n1	-3	0.38
COc1ccc(NC(=O)C2CCC(c3ccccc3)N(C(=O)NC(C)C)C2)cc1 (configuration not stated)	-13	2.26
O=C(Nc1ccc(Cl)cc1F)N1C[C@@H]2C[C@H](NS(=O)(=O)c3cccs3)[C@H]1C2	35	-3.98
Cc1ccc(CNC(=O)[C@]2(C)Cn3cnc(C(=O)N4CCN(c5ccccc5)CC4)c3C(=O)N2C2CC2)cc1	-12	1.23
Cc1ccc(C(=O)NC[C@H]2CN(C(C)C)CC23CCCCC3)s1	-5	0.89
C=CCOc1cc(C)c2c(c1C)[C@H](O)C([C@H](C)C(=O)NCCOC)CC2 (some centres not stated)	33	-3.78
CCOC1CC(NC(=O)N2CCC(n3cc(Cl)cn3)C2)C12CCCO2 (configuration not stated)	-10	1.24
CCOc1ccccc1C(=O)N[C@@H](CC)CO	-10	1.4
COC(=O)CNC(=O)N1CCCCCCn2c(nnc2-c2ccc(F)cc2)CC1	-4	0.51
CC(C)[C@H](CO)NC(=O)c1cn(C2CCCCC2)nn1	-1	0.14
CCN1C(=O)C2(CCN(S(=O)(=O)c3ccc(OC)cc3)CC2)c2ccccc21	-7	1.14

Compound	% Inhibition [%]	Z score
O=C(NC[C@@H](c1ccccc1Cl)N1CCOCC1)c1ccc(Br)o1	-10	1.37
O=C(CN1CCC[C@@H]1CO)NC1CCCCCCC1	-8	1.17
Cc1cc(C(=O)N2C[C@H]3CCC[C@@H](C3)C2)ccc1F	-5	0.85
Cc1ccccc1NC(=O)[C@]1(C)Oc2cccnc2N(C)C1=O	-3	0.6
O=C(NCc1nnc2ccccn12)c1cccc(=O)n1CCOc1ccccc1Cl	34	-3.8
CC1(C2CCCN(Cc3ccc4ccccc4n3)C2)NC(=O)NC1=O (configuration not stated)	-1	0.12
Cc1nnc([C@H]2CCCN(Cc3nccc4c3CCCC4)C2)o1	-4	0.51
Cc1cccc(Cn2c([C@@H]3CCCCN3C)n[nH]c2=O)c1	-14	1.31
Cc1ncc(Cl)c(C(=O)N2CCC(c3nnc(CN4CCCC4)n3C)CC2)n1	-6	1.12
O=C1CC[C@@H](CN(Cc2ccccn2)C(=O)CN2CCCCCC2)N1	-9	1.9
CCS(=O)(=O)c1cccc(CC(=O)N(C)c2cccc(C#N)c2)c1	-12	1.21
CCCCC[C@H](NC(=O)C1CCCC1)C(=O)O	-7	1.16
CC(=O)Nc1ccc(C(C)=O)cc1OCC(=O)Nc1ccc2c(c1)OCCCO2	-13	1.75
CC1CCN(CC(=O)N2c3ccccc3[C@](C)(c3ccc(Cl)cc3)CC2(C)C)CC1	-4	0.5
CCc1ccc(-c2cc3n(n2)C[C@@](C)(C(=O)NC2CCCCC2)N(c2cccc(C)c2C)C3=O)cc1	-2	0.32
CC(C)C[C@@H]1N=C(O)N(CCc2c[nH]c3ccccc23)C1=O	2	-0.19
Cc1cc(OCC(=O)N2CCOc3c(F)ccc(F)c32)no1	-5	0.75
O=C(NCCc1ccc(Cl)cc1)c1csc(NS(=O)(=O)c2cccs2)n1	-9	1.73
CCn1c[n+](CC(=O)c2ccccc2)cn1	-5	0.85
CCn1c([C@H](C)NCc2nnc(C(=O)NCc3ccc(C)cc3)s2)nc2ccccc21	-8	0.95
CN1CC[C@@H](c2nc(-c3ccc(OCC(F)F)cn3)no2)S1(=O)=O	-5	0.46
CCS(=O)(=O)N1CC(CNC(=O)c2cccs2)C1	-12	1.33

Compound	% Inhibition [%]	Z score
c1ccc(-c2csc(NCc3ccon3)n2)cc1	1	-0.21
CN1C(=O)[C@H](O)[C@H](C(=O)NCCCCO)[C@H]1c1ccccc1	-9	1.21
CCc1nc(CS(=O)(=O)C[C@H]2CCCO2)n[nH]1	-5	0.68
Cc1nnc(Cn2cc(Cl)cn2)n1C	-13	1.6
Cc1cc(NC(=O)[C@H]2OCCO[C@H]2C)nn1C1CCCCC1	-2	0.22
Cc1cc(CNC(=O)C2CC23CCCN(C(=O)OC(C)(C)C)C3)no1 (configuration not stated)	-9	1.73
Cc1onc(C(=O)NC2CCCC2)c1C	-31	3.69
Cc1ccc(C2OCCCC2CNc2nccnc2C#N)cc1 (configuration not stated)	3	-0.53
C[C@@]1(C(=O)O)CCCN1Cc1cc(C#CCO)cs1	0	-0.05
O[C@H]1CCN(Cc2ccc(OCc3ccccc3F)nc2)C1	3	-0.24
CCOC(=O)NC(c1ccccc1F)C1CCCCC1=O (configuration not stated)	40	-5.1
O=S(=O)(Nc1ccccc1-c1nc2ccccc2s1)c1ccc(Cl)cc1	-17	2.13
COCCc1nnc2n1CC1CCC(C2)N1C(=O)CCc1ccccc1 (configuration not stated)	-6	0.81
COc1cc(C(=O)NCc2cncn2CC(C)C)ccn1	-14	1.83
CCc1onc(C)c1[C@@H]1CCCN1C(=O)Cn1nc(C(F)(F)F)c2c1CCCC2	-4	0.54
COc1ccc2c(c1)[C@](O)(CNC(=O)c1csnc1C)CCC2	-6	0.5
C#CCNC(=O)CN1C=NS(=O)(=O)c2ccccc21	3	-0.35
CC(C)CC[C@@H](CCNCc1cccnc1)c1ccco1	-3	0.43
CC1Oc2ccc(NC(C)c3nc(C(C)C)no3)cc2NC1=O (configuration not stated)	7	-0.66
CCc1nn2c(S(=O)(=O)N3CCCCCC3)c(C)nc2s1	-14	1.76
